This is one part of the list.
Molecular target: T1, OsWOX13 (Oryza sativa, UniProt Q5QMM3 1-267)
T1 sequence: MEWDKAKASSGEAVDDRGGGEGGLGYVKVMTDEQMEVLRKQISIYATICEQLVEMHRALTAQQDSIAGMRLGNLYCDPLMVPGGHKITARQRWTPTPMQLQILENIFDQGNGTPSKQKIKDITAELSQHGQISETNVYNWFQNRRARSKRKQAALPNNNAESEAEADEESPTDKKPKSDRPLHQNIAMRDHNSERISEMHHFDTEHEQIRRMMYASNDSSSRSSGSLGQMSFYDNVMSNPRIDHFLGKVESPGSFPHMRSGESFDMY
Experiment: protein-binding microarray (RPBM); PBS, 2% BSA, 51.3 ng/ul salmon testes DNA, 50 uM zinc acetate, 200 nM TF, 25 C, 1 h; high values mean tight binding
Settings: protein: recombinant; tags: N-terminal polyhistidine and DsRed monomer fusion (pET32a); label: CyDye5-dUTP incorporated in the synthesized complementary strand; 3' TTTTT single-stranded linker to array surface; dsDNA, one strand shown
In short: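 Binding signal is reported as fluorescence intensity per feature (arbitrary units) from an Axon 4000B scanner. Incubation used 200 nM of each Ni–NTA-purified, N-terminally polyhistidine- and DsRed-fused transcription factor from E. coli BL21-CodonPlus on a double-stranded custom Agilent array for 1 h at 25 °C, with 50 µM zinc acetate in the buffer, followed by washing.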

| Sequence | binding signal |
| --- | --- |
| ATTAAATTGAAAATTAAATGTACGAGAATCGTCCATGTCACGGAGTCACCTAGTGCAG | 50900 fluorescence intensity (a.u.) |
| CATCAATGATGGAATTATGTAATTAAGGTTAGTGCAAAGACGGAGTCACCTAGTGCAG | 23600 fluorescence intensity (a.u.) |
| ATATAAATCATGTATATAAACAACAATTCATGCAATTCACCGGAGTCACCTAGTGCAG | 5650 fluorescence intensity (a.u.) |
| GAGTATAATTTTATTATTTCATTGAGCCCATGGTTGAACCCGGAGTCACCTAGTGCAG | 5230 fluorescence intensity (a.u.) |
| TCCACTGTCATCAATATTGTAATTATTTATGGCGAATTTTCGGAGTCACCTAGTGCAG | 6310 fluorescence intensity (a.u.) |
| GTCAAATCAAGAAGTAATCAGTTGCAAATCCTCGATCAGCCGGAGTCACCTAGTGCAG | 8770 fluorescence intensity (a.u.) |
| GTCAATTAAATTCACAGTCACGTACGTTGGTCCGACTAATCGGAGTCACCTAGTGCAG | 7040 fluorescence intensity (a.u.) |
| CCATTTAATTTATTTTACTCGGCCTGCATAGCGGAGAGGTCGGAGTCACCTAGTGCAG | 18200 fluorescence intensity (a.u.) |
| GCTGCAACCAAATTAATTTCGTAAGCATATTAGTATATACCGGAGTCACCTAGTGCAG | 5820 fluorescence intensity (a.u.) |
| GATGATTGGCATATGTAACATGTCGGAGGTTACGAACTATCGGAGTCACCTAGTGCAG | 43100 fluorescence intensity (a.u.) |
| AAGATTCTATACTTTGATTGAAAAGTATAGTCTAATTATTCGGAGTCACCTAGTGCAG | 9870 fluorescence intensity (a.u.) |
| CTCCTCCGTCTCCTACCCCTTTCTCGCCTTCCCCAACTTTCGGAGTCACCTAGTGCAG | 3410 fluorescence intensity (a.u.) |
| ATAGATTAATGAATTATATGCCTCGTCATTTGGTGAAATACGGAGTCACCTAGTGCAG | 9390 fluorescence intensity (a.u.) |
| TTGAATTGAGAAGAATGAGAGAGATTGTTAAAGTAGGGAGCGGAGTCACCTAGTGCAG | 3790 fluorescence intensity (a.u.) |
| ATGAATGATTAAATGTGTGACGAAAAGTGAATCGAACGTACGGAGTCACCTAGTGCAG | 30700 fluorescence intensity (a.u.) |
| ATATGATTTATAAGCCAGTGGATTTAATGTCCTAAGTTTACGGAGTCACCTAGTGCAG | 27000 fluorescence intensity (a.u.) |
| AGTAGCCATAATTGGACTCGAACATCTGAGAAGCTGCGGCCGGAGTCACCTAGTGCAG | 5600 fluorescence intensity (a.u.) |
| CATTGATTTACTATTTCTTAACAAATCCCGGCCCATTTCTCGGAGTCACCTAGTGCAG | 23800 fluorescence intensity (a.u.) |
| TATATTAACAAGAGTAAATTAACCCTCGGTACATGTACTGCGGAGTCACCTAGTGCAG | 4080 fluorescence intensity (a.u.) |
| ATTTCTTCAATTGATGGATATTTAGGCATGCATCAAGTTGCGGAGTCACCTAGTGCAG | 11600 fluorescence intensity (a.u.) |
| CTAAATTTATTCCCATACACATACAACCACAAGCAAATATCGGAGTCACCTAGTGCAG | 4840 fluorescence intensity (a.u.) |
| ACGAAAATCAAATTTGTTGACAAGTTAAGGGACCTTAAATCGGAGTCACCTAGTGCAG | 3740 fluorescence intensity (a.u.) |
| ATAACTGACACCTTTCCATTTTAAAATTGCACATGCATTGCGGAGTCACCTAGTGCAG | 6850 fluorescence intensity (a.u.) |
| ATATAATTTGTTCATATGTATCCTCAAATAACTACTTGATCGGAGTCACCTAGTGCAG | 30500 fluorescence intensity (a.u.) |
| CTCTGATTGTTCATCACTTATTATTTTCTTTGAGACCAGACGGAGTCACCTAGTGCAG | 44700 fluorescence intensity (a.u.) |
| CAAAACCAAGATTTTAATTTAAAATATAATCTCACGATTTCGGAGTCACCTAGTGCAG | 5110 fluorescence intensity (a.u.) |
| TACTTTGATTTGGGATTTGGGGATATGCATCCCACTTAATCGGAGTCACCTAGTGCAG | 14100 fluorescence intensity (a.u.) |

| Sequence | binding signal |
| --- | --- |
| TTAAGTAATTATTAATTCTTTTCCTATCATTTGATTCATCCGGAGTCACCTAGTGCAG | 10900 fluorescence intensity (a.u.) |
| CTTCCAATTTGAGATTTGAAAATTTTCAACTCGAAATTCGCGGAGTCACCTAGTGCAG | 8620 fluorescence intensity (a.u.) |
| TCCAAATCCTACAATAATTGATTGAATCAAACACAGAAAGCGGAGTCACCTAGTGCAG | 41200 fluorescence intensity (a.u.) |
| TATTATTTATTTTATTTGTGATTTGCTTTATTATCCACAGCGGAGTCACCTAGTGCAG | 7870 fluorescence intensity (a.u.) |
| TTTGATATCCAATCAATCAACCGATGTGACATCTAAAATTCGGAGTCACCTAGTGCAG | 25200 fluorescence intensity (a.u.) |
| ACTATCAATCAAAGATGCAAATTTTATAAAGTATATAAAACGGAGTCACCTAGTGCAG | 5210 fluorescence intensity (a.u.) |
| TGGAAATTGGATGCTAAAGCTTTGTTTGCTTCCAACGACACGGAGTCACCTAGTGCAG | 7250 fluorescence intensity (a.u.) |
| CTAAATTTTCTAGAACTATATTTACAGTACCGCTCAAGAACGGAGTCACCTAGTGCAG | 7340 fluorescence intensity (a.u.) |
| GGTGTATAATTAAATTAGTTTACAAGTAAAGTAAGTGTGACGGAGTCACCTAGTGCAG | 13000 fluorescence intensity (a.u.) |
| TTAATTAATCAATTTCCTATTTATTTCATGGCATGTAGGACGGAGTCACCTAGTGCAG | 41800 fluorescence intensity (a.u.) |
| TGGATGCTTAATTGGGTTTAGGCCCATTATATTGAAGCCTCGGAGTCACCTAGTGCAG | 7080 fluorescence intensity (a.u.) |
| TGCACAATCCGACTGTAAATTACGAGATGAATCTTTTGAGCGGAGTCACCTAGTGCAG | 4110 fluorescence intensity (a.u.) |
| GGATTAATAGATAGTCTGACTTTTCTGATAACTATTTAAGCGGAGTCACCTAGTGCAG | 28400 fluorescence intensity (a.u.) |
| CAAGATTGAACGAAATTTTAATGAAGCTTGATTCTTTATTCGGAGTCACCTAGTGCAG | 35900 fluorescence intensity (a.u.) |
| ATCGCAATCAGGGGTGGAGACTGGAGAGAGCAGCATTCAACGGAGTCACCTAGTGCAG | 8630 fluorescence intensity (a.u.) |
| AATTTTGATTGACAGGGAAAGAAGAATAGGAAGTTCTTCTCGGAGTCACCTAGTGCAG | 35500 fluorescence intensity (a.u.) |
| GTTTTAAATTACGTGTTTTAGGTTTGTCCTAAGTCAAATACGGAGTCACCTAGTGCAG | 6220 fluorescence intensity (a.u.) |
| CGGAGTTGTTAATTATACATAGTTGAGTGATCGCTAGCTCCGGAGTCACCTAGTGCAG | 8830 fluorescence intensity (a.u.) |
| ATTGGTTTCGTTAAATTTAACATTAAATATATTTTGATAACGGAGTCACCTAGTGCAG | 6430 fluorescence intensity (a.u.) |
| TATCATTATTTACCGATTAATTTATACTGGATTATATTGTCGGAGTCACCTAGTGCAG | 16500 fluorescence intensity (a.u.) |
| GTAATGACCGTTTGATTGAACCACAGGAATTGGATGAGAGCGGAGTCACCTAGTGCAG | 38800 fluorescence intensity (a.u.) |
| AATTAATTAACGTGTGTGCTTGCACAGCAGCCGACGTGTTCGGAGTCACCTAGTGCAG | 17700 fluorescence intensity (a.u.) |
| AATGACCCCAATTTATTTGGTAAATTTACTAACCTGAGCGCGGAGTCACCTAGTGCAG | 7560 fluorescence intensity (a.u.) |
| AAGTAATTAAACCTAATCAATCATCAAGCCATATATACATCGGAGTCACCTAGTGCAG | 21700 fluorescence intensity (a.u.) |
| TATTGATAGTTGACTGTCTAAACGTTTAAATGTTGTTACCCGGAGTCACCTAGTGCAG | 22600 fluorescence intensity (a.u.) |
| TCTTGATGGACAAAGCTAGGGTTGTAGTAGGCTTGTAGCCCGGAGTCACCTAGTGCAG | 32700 fluorescence intensity (a.u.) |
| GTGTTTATGCCTCATCACTAATTAGAATCTTAATTTCTCTCGGAGTCACCTAGTGCAG | 4710 fluorescence intensity (a.u.) |

— publication PMC7819943, “Rice protein-binding microarrays: a tool to detect cis-acting elements near promoter regions in rice”
